According to PMC11626941, “FBLN7 mediates vascular smooth muscle cell phenotype switching and vascular remodeling in hypertension” (Theranostics, 2024):
No constants are given. Whether binding was seen depends on the method and setting. For some of these results: In cells and extracts the contact can be indirect. Some entries that bind do so weakly or less than the wild type. For some of these results: Sequences can lack the tags named with a protein. One block for each binder: values may come before it.

Columns and labels:
[1] = molecular target: T1, Flag-tagged full-length mouse SDC4 (mouse) (UniProt O35988); assay: co-IP; HEK293T co-transfected with tagged FBLN7 and SDC4 plasmids (full length or truncations), lysed after 24 hours; antibody overnight at 4 °C, protein A/G magnetic beads, washed with 0.5% Tween-20 in PBS, western blot
T1 sequence: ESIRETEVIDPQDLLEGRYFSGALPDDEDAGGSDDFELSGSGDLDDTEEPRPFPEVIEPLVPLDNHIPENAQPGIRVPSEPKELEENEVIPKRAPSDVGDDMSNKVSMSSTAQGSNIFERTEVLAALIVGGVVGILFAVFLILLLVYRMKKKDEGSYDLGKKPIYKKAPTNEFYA

[2] = molecular target: T1, Flag-tagged full-length mouse SDC4 (mouse); assay: co-IP; HEK293T co-transfected with increasing amounts of FBLN7 plasmids and a fixed amount of SDC4; dimeric form of SDC4 read on the blot
[3] = molecular target: T2, Myc-tagged full-length mouse FBLN7 (mouse) (UniProt Q501P1); assay: co-IP; HEK293T co-transfected with tagged FBLN7 and SDC4 plasmids (full length or truncations), lysed after 24 hours; antibody overnight at 4 °C, protein A/G magnetic beads, washed with 0.5% Tween-20 in PBS, western blot
T2 sequence: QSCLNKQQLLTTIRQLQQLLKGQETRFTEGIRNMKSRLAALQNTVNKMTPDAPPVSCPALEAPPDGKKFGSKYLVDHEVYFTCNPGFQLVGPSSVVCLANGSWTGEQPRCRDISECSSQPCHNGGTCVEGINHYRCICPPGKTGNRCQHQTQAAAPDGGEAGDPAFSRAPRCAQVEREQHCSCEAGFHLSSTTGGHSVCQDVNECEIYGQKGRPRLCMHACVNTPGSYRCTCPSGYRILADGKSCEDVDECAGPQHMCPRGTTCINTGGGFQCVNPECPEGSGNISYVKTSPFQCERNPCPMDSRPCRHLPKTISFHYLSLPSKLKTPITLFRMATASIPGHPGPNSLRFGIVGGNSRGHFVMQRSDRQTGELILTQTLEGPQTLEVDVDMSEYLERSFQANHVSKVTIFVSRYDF

[4] = molecular target: T3, FBLN7 in VSMCs (co-immunoprecipitation of Figure S6A) (UniProt Q501P1); assay: co-IP; VSMC lysate; antibodies overnight at 4 °C, protein A/G magnetic beads, western blot (Figure S6A)
T3 sequence: T2 sequence

[5] = molecular target: syndecan-4 (SDC4), endogenous in VSMCs (mouse (endogenous in MASMCs)) (UniProt O35988); assay: immunoblot with non-reducing loading buffer; VSMCs overexpressing FBLN7; SDC4 dimers read on the blot (Figure S6B)

- binding [1]: binds
B1: Myc-tagged full-length mouse FBLN7 (protein, UniProt Q501P1 25-440)
chain: T2 sequence

- binding [1]: no binding
B2: FBLN7-delete-139-440aa (Myc-tagged, FBLN7-C region deleted) (domain or fragment, UniProt Q501P1)
chain: QSCLNKQQLLTTIRQLQQLLKGQETRFTEGIRNMKSRLAALQNTVNKMTPDAPPVSCPALEAPPDGKKFGSKYLVDHEVYFTCNPGFQLVGPSSVVCLANGSWTGEQPRCRDIS

- binding [1]: binds
B3: FBLN7-delete-79-136aa (Myc-tagged, sushi domain deleted) (domain or fragment, UniProt Q501P1)
chain: QSCLNKQQLLTTIRQLQQLLKGQETRFTEGIRNMKSRLAALQNTVNKMTPDAPPISECSSQPCHNGGTCVEGINHYRCICPPGKTGNRCQHQTQAAAPDGGEAGDPAFSRAPRCAQVEREQHCSCEAGFHLSSTTGGHSVCQDVNECEIYGQKGRPRLCMHACVNTPGSYRCTCPSGYRILADGKSCEDVDECAGPQHMCPRGTTCINTGGGFQCVNPECPEGSGNISYVKTSPFQCERNPCPMDSRPCRHLPKTISFHYLSLPSKLKTPITLFRMATASIPGHPGPNSLRFGIVGGNSRGHFVMQRSDRQTGELILTQTLEGPQTLEVDVDMSEYLERSFQANHVSKVTIFVSRYDF

- binding [2]: binds
- binding [3]: binds
B4: Flag-tagged full-length mouse SDC4 (receptor, UniProt O35988 24-198, looked up)
chain: T1 sequence
notes: Plasmids provided by GenePharma; Seen as monomer, dimer and tetramer bands on non-reducing blots; also called Flag-SDC4; Flag (SDC4); source: HEK293T, transfected (pcDNA 3.1), in lysate; not shown: Flag, C-terminal, kept

- binding [4]: binds
- binding [5]: binds
B5: syndecan-4 (SDC4), endogenous in VSMCs (receptor, UniProt O35988 24-198)
chain: T1 sequence
